# Test results: the supplement of paper PMC12632987
# In all, about 1,800 sequences were measured (“median log2 fold change of GCK-ALFA target abundance (FLAG IP / Myc IP barcode read proportion)”: median about 0.14, lowest 2% from about -0.84 on). The list shows a part of the results.
# T1: TRAF2, Q12933
# T1 chain: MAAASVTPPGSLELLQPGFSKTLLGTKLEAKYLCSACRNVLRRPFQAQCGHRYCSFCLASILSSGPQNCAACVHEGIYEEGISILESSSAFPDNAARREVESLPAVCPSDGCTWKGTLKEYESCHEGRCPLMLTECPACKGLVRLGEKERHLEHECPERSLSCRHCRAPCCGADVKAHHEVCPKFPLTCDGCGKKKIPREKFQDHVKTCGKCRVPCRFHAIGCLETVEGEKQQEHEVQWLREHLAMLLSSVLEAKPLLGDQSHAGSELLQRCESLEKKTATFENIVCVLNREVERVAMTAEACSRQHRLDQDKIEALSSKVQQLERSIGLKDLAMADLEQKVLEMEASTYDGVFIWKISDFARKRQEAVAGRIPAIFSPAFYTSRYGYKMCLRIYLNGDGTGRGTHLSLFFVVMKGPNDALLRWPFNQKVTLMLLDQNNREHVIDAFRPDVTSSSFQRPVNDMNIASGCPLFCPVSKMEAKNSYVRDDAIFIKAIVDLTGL
# B1: traf2_out_16_177_1447 (protein)
# chain: ELDRLMDRLVILSHLRRAAELAVEGRLDAAREELARARAEAEEAGDAEGLALADEIAALIAENTPEARARLAALAARLQAEAGKLAEEAEALIKARAAAE
# B2: traf2_out_9_17_2613 (protein)
# chain: SAEEKYLKEKLLEAIEEVLKELVEKGYITEEEAEEILEKVKEMIEKGASPDEIIASFLGDVASILLTKSNLSLPEANKIVGEAYRKLRERLEKIEKELAA
# B3: traf2_out_11_169_820 (protein)
# chain: AEKKFNRELNDFALEENDKANEELKKFALALAKEEGLDVAEVEKIFEETKGKSLSYIASKLIAWFRSKGAEKAAAAVEAKHDELQDEINKKVSAKIKELK
# B4: traf2_out_17_162_1471 (protein)
# chain: MSIEEVVEELKKELEELRKRAEELEEKLKELEKLSKEELTDLLVEASEARRRALELAERFKELAPEIGEEVAEEYAKEAEEIAERLQRIANKIYKEIEKK
# B5: traf2_out_16_171_1444 (protein)
# chain: SREERAREILERIRERVERLKERAATALEMAPLIMRETGLTPEQIAAGVASHFDDRLAELRRFIEEHRPELSPEELEEAEALLAEAEAHVEAQLAAIRAL
# B6: traf2_out_13_95_1126 (protein)
# chain: SKEVAEKIMEIADEMEEKVLEKLEELLEIAKKKGIAEEEIKEILELAKHGTISTVIHKLKELSKKYPELKEEFEETIKELEEIRREAGREVAKILKEEEE
# B7: traf2_out_6_156_2409 (protein)
# chain: MVEKILKEALEEIEKLIKELAKASEEKKIAYISKIAGTAYRALQKLREAGASLEEIEKFSKELLERIEKLLKEAGLPEETRNLVLSALQAVFDVAIEEAK
# B8: traf2_out_17_178_1743 (protein)
# chain: SKEEILKKISELADKMLDTSAAAAAELRAIAEREGVLTPELRARLDEVARNSNAYALDEVAAEVIARTPRAEEVAALRDATLAKLKALEKEIQKAVDELE
# B9: traf2_out_11_169_822 (protein)
# chain: EQKEFNRKLNDFALEKNDEANEKLKEEALKLAKEAGLDVEEVEKIFEENKGKSLSAIAAALIEWFKSKGKEEEAAKVLELHDKLKDEINKAVSEKIKELE
# B10: traf2_out_6_156_2457 (protein)
# chain: TLEKILEETKKKIKEGVKKLAEASEEKKIAYINKIAGAFYRGLQRAREAGASLEELEAFARELIKVAKEEAKKAGLDEDTKNLLLSTLNAVADVALREAA
# B11: traf2_out_18_117_1781 (protein)
# chain: SEREELIKELQEIAERLDEAASRLGKVFLDNYEKLTPEEKSEIMDILADLTAVRQKALQLIIKIENGEIEVEEAKKELEKLKKEAEEAIKKAEERIKKIE
# B12: traf2_out_20_3_2166 (protein)
# chain: EELEKKAEEELKKALELLKEAAKLADPETAKRLEELIKRLKASEELSPVDRLVVVSEVRREVLLLAQEARAAGDEELAELLEKAADALNRLAQLLYEIIE
# B13: traf2_out_11_104_652 (protein)
# chain: LTREQARKFNDFAMEQRDRAQEIGRAVAAALRAAGEDAAAARVEALLADPGAGISSFRNLLEELRPELDPASQAVADAAIERLEELQREASEKLNELEAE
# B14: traf2_out_11_155_707 (protein)
# chain: SEKLEIYQQLVNENMEIADEALEKLNELIKEIAKKDPEVAKELKKVLEENKDAGYTTKLLLAEKVLKAAGYEEEAKKVKEILEEAQKKSNEIAKKAEEKL
# B15: traf2_out_16_104_1375 (protein)
# chain: SAERDEEFERIIEELERIAEEAQRLANRLMKLMEKASPEKKVEISDALVEVSRLRREALLAAQEVRERRERGGDLEEARRELERLREELERARREVEELE
# B16: traf2_out_13_95_1194 (protein)
# chain: EEEKRKKYKEKTNEIADKLLDFADELIDEITAATGDAALGAELRTVLNRYGVRALVHYIREQAKKNPEHKALFEEAAEKLEEKIREAGREVAREEKKIEE
# B17: traf2_out_20_3_2059 (protein)
# chain: SELEKKIEELTKKLKEKLKELEKLLPPEEAAELRAAWKEVEEAAKKGLEEYLIAVSRLRRLLLRLAEEAEARGDAETAALLREAADLAGKIANLVYKKIE
# B18: traf2_out_1_158_913 (protein)
# chain: DTKKSLMLSVVELVVRDAVESAREAGREETAAALEELGREIIELVRRLLVEEGKSVEEVIAAIDELAARAIARADPETAAAIERLRRQVITGLRQVDKLM
# B19: traf2_out_11_169_864 (protein)
# chain: KEKEFNRKLIDFALEVEDEAKKKLEEFALKLAKEEGLDVEEVKAIFEKNKNKSLSAIASALIKYFESKGKKDAAKKILEKHDELKEEINKKVSEKIKELK
# B20: traf2_out_18_167_1853 (protein)
# chain: EEEKRKKREELMDRLVDLSEVKRAARALIQALRTDPAQAPAALAALEAAAAKVPELQPLVAAIRAALAAGDREGALAALEALIAEAQRLANEAMEEYEKS
# B21: traf2_out_1_27_991 (protein)
# chain: SDKEIAERIKEASRKMANSSLEEKLKIARELIRELAEVGKGDARTAAVILVSTMKTEEEFEALLEEIERTFRELGWSEEEIAEIRRQMRTMWELLKKALA
# B22: traf2_out_14_149_1238 (protein)
# chain: SHMAELFKAAAELAEKAAKALKEVVKLLKAGKVEEAKKLLEETIKYLKEEGEKHGISISIIYVLEHIVELLDKDVEAAKKAAEAAEKRAKDRAEAYKSLA
# B23: traf2_out_5_63_2354 (protein)
# chain: SEREELTELARRADRLALAALEAAEAGDEAEAEALLAEALEDPELARLVIGILRGLARYYELRGDRPERAALARRLADRLEAALEERERAERAAAEEAAR
# B24: traf2_out_8_15_2556 (protein)
# chain: SLEEAAKKDLEKLKAHSDGDLESFANAALGFARAEVRYAKILLEEGKKELALNTLKYARALIKKTLEYAKKEGLPNLEEVEKEAKKLLEEIEKIEKEIKE
# B25: traf2_out_20_3_2113 (protein)
# chain: EELEEKLKKALKEAKKLLKEAAKLADKETAKVLKELAKELEKSEKLSPVDRLVVVSEIKRKVRLLAQEAKKKGDKELAAVLEKAADALNKAANLLMKIIE
# B26: traf2_out_17_162_1644 (protein)
# chain: SELEEQIEELERRLEELEERVERLEELTKTIETYSEEELSDLIVEASEVKREALELLQEIESLKDKLSPERYEELSSRAEEIIERAQRVAQRFYDARLAK
# B27: traf2_out_13_95_1057 (protein)
# chain: SLELARRIMELADRAEEEVDAALDEAKARLADDPAAVAVLDEARRAARTRGINEAIHILREAKAADPAHAAEFTELIERLEAIKRETGREVARLIREEQE
# B28: traf2_out_11_169_798 (protein)
# chain: KEKEKNRKINDKALELNDEAKEELLKHAKELAKKAGLDVEEVEKIYEKNKNKSLSAVASALIKYFESKGAEEEAKAVLEKYEELKEEINKKMTEFIKELE
# B29: traf2_out_11_79_925 (protein)
# chain: SALSEELKEIAERLEELIERLKEAQANPETREETLAEILRELREVYNRVGQLLLKTENTDLGFVATEIRDAIRALEAGDLEEALEELEEALEEVKRILEE
# Molecular target: T1, TRAF2, Q12933
# Assay: median log2 fold change of GCK-ALFA target abundance (FLAG IP / Myc IP barcode read proportion) (log2 ratio); each designed protein is fused to an ALFA-tag nanobody in HEK293 cells to bring the named protein to FLAG-tagged glucokinase (GCK); Myc marks an untargeted standard; higher = target protein stabilised (more abundant)
# Conditions: target protein: 3xFLAG-MCP-GCK-ALFA reporter; HEK293 landing pad (RPLP)
# How it was run: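 Binders fused to an ALFA nanobody were recombined as a library into HEK293 landing-pad cells, which were induced with 2 μg mL^−1 doxycycline and then transfected to express a FLAG-tagged target and a Myc-tagged standard. After 48 h, circular RNA barcodes recovered by anti-FLAG and anti-Myc immunoprecipitation of lysates were reverse transcribed, amplified and sequenced. Each binder's target abundance is the median log2 ratio of FLAG to Myc barcode read proportions, from barcodes present at ≥10^−7 in both replicates, binders carrying ≥3 barcodes per replicate, a 10^−6 pseudocount and pooled replicates.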
row,Binder,median log2 fold change
1,B1,0.0857
2,B2,0.0985
3,B3,0.295
4,B4,0.35
5,B5,-0.131
6,B6,-0.141
7,B7,-0.0141
8,B8,0.172
9,B9,0.108
10,B10,-0.286
11,B11,0.277
12,B12,-0.224
13,B13,0.149
14,B14,0.384
15,B15,0.00548
16,B16,0.156
17,B17,0.304
18,B18,-0.0918
19,B19,-0.302
20,B20,0.11
21,B21,-0.0734
22,B22,-0.231
23,B23,0.178
24,B24,0.0845
25,B25,-0.44
26,B26,0.226
27,B27,-0.146
28,B28,-0.0687
29,B29,0.415
